Laboratory results published in PubChem BioAssay AID493208 (National Center for Advancing Translational Sciences (NCATS), 2011).
In all, about 44,000 compounds went through this assay and about 340 (0.77%) were called active. Not shown: some 5% with an inconclusive outcome. The call rests on the fitted dose curve; in most records, active means well fitted inhibition curve with a large enough effect; inconclusive means small, poorly fitted or top-dose-only effect; inactive means flat fitted curve, though single readings scatter. The list shows a part of the results.

Assay: Acumen qHTS Assay for Inhibitors of the mTORC1 Signaling Pathway in MEF (Tsc2-/-, p53-/-) Cells: Sytravon;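 further: plate controls were DMSO for no effect and rapamycin for full effect; nearly all actives have a fitted effect of over 50% in size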
Settings: phospho-rpS6 immunofluorescence/PI, 24 h; series mostly up to 38.3 µM; activity change, negative = inhibition: at the top concentration
In short: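 Plate MEFs (Tsc2-/-, p53-/-, empty vector) in DMEM/10% FBS; after 24 h add compound, incubate 24 h at 37 degree Celsius; fix in PFA/TX-100, block, stain phospho-rpS6 and 10 uM PI; scan at 488 nm; report % positive cells.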

Activity change, negative = inhibition, inactive:
CC(=O)N1c2ccccc2C(C)(c2ccc(C)cc2)CC1(C)C (stereo not given) -16.9%
O=C(NCc1ccccc1)c1cccn1-c1nnc(N2CCCC2)s1 0.286%
COc1cc2c(cc1OC)C(COc1ccc3c(C)cc(=O)oc3c1)N(C(=O)c1ccccc1C)CC2 (stereo not given) -7.39%
COc1ccc(-n2nnnc2C2CCN(S(=O)(=O)c3ccc(C)cc3)CC2)cc1 -0.856%
COCCn1c(=O)[nH]c2cc(C(=O)N3CCN(c4ccccc4)CC3)ccc2c1=O 5.95%
CCOc1ccc(CNC(=O)c2nn(-c3ccc(OC)cc3)c(=O)c3c2c2ccccc2n3C)cc1 4.39%
CC(=O)N1CCc2cc(S(=O)(=O)NC(Cc3ccccc3)C(=O)Nc3cc(C)ccc3C)ccc21 (stereo not given) 1.96%
CCOc1ccc(C(=O)Nc2ccc3nc(SCC(=O)N4CCc5ccccc54)sc3c2)cc1 -2.8%
CC1=C(c2ccc(C)cc2)S(=O)(=O)N(Cc2ccc(C(=O)Nc3ccc(C)c(F)c3)cc2)C1=O -1.1%
NC(=O)CSc1ncc2c(n1)-c1ccccc1N(Cc1ccc(F)cc1)S2(=O)=O 1.07%
Cc1ccc(-c2ccc(CCC(=O)O)n2-c2ccc(C(N)=O)cc2)cc1 -0.638%
COc1ccc(-c2n[nH]c3c2cnc2ccc(F)cc23)cc1 0%
CCCSc1nc(-c2ccccc2)[nH]c1S(=O)(=O)c1ccc(C)cc1 4.27%
Cc1ccc(-c2c(C(=O)NCCc3ccccc3)oc(=O)c3ccccc23)cc1 -3.51%
COc1ccc(-c2cc3ccc(O)c(CN4CCCC4)c3oc2=O)cc1 6.2%
COc1ccc2c(c1)c1c(c(=O)n(Cc3ccccc3)c(=O)n1Cc1cccc(Cl)c1)n2C -0.614%
COc1ccccc1NC(=O)c1cnc(SCC(=O)N2CCOCC2)n(C)c1=O -8.11%
CCn1cc(C(=O)NCCCOC)c(=O)c2cc(S(=O)(=O)N3CCc4ccccc4C3)ccc21 2.22%
Cc1cc(C)c2oc(-c3ccc(Cl)c(NC(=O)c4cccs4)c3)nc2c1 -1.92%
CCOC(=O)C1CCCN(CC(=O)Nc2cc(C)c3c(=O)oc4ccccc4c3n2)C1 (stereo not given) -0.399%
O=c1oc2ccc3ccccc3c2cc1-c1nnc(Nc2ccccc2F)s1 -4.43%
Cc1cc(C)cc(NC(=O)C2CCN(S(=O)(=O)c3cn(C)cn3)CC2)c1 7.27%
Cc1cc2c(cc1NS(=O)(=O)c1cccc(C#N)c1)n(C)c(=O)c(=O)n2C -8.2%
CCc1cccc(C)c1NC(=O)Cn1nnc(-c2nc(-c3ccccc3F)no2)c1N 2.76%
CC1=Nc2cc(C(=O)N3CCC(C)CC3)ccc2Sc2ccc(Cl)cc21 -26%
Cn1cc(S(=O)(=O)N2CCCCCC2)cc1C(=O)Nc1ccc(Cl)c(C(F)(F)F)c1 -0.522%
COc1ccc(NS(=O)(=O)c2cc3c(cc2C)N(C(C)=O)CCO3)cc1 -2.63%
CCCOc1ccc(C2C(=O)N(C3CCC(C)CC3)CC(=O)N2Cc2cccc(OC)c2)cc1OC (stereo not given) -4.14%
COc1ccc(CCNC(=O)c2ccc(Cn3c(=O)c4ccccc4n(Cc4cccc(F)c4)c3=O)cc2)cc1OC 3.9%
COc1ccc(-c2nc3ccccc3o2)cc1NC(=O)COc1cc(C)cc(C)c1 -2.34%
CCc1ccc(NC(=O)CCc2c(C)nn(-c3ccc(N4CCCC4)nn3)c2C)cc1 1.22%
Cc1oc2c(c1C(=O)Nc1ccc(OC(F)(F)F)cc1)C1=NCCN1C=N2 0.938%
COc1ccc(NS(=O)(=O)c2cnc(N)nc2)cc1Cl -0.961%
CC(=O)c1ccc(Oc2ncnc3c2oc2ccccc23)cc1 -0.622%
COc1ccc(NC(=O)CCS(=O)(=O)c2cc3c4c(c2)CCN4C(=O)CC3)c(OC)c1 -3.7%
COc1ccc(C(=O)c2c(N)c(C(=O)Nc3ccccc3Cl)c3ccccn23)cc1 -17.4%
Cc1cc(=O)[nH]c2nnc(SCC(N)=O)n12 0.191%
CC1CCN(C(=O)Cn2cc(SCC(=O)NCc3ccc(F)cc3)c3ccccc32)CC1 -8.88%
COc1cc(C(=O)NCCc2sc(-c3ccc(C)cc3)nc2C)cc(OC)c1OC -6.17%
Cc1nnc(N2C(=O)c3oc4ccccc4c(=O)c3C2c2cccc(OCCC(C)C)c2)s1 (stereo not given) 2.87%
CCCCc1ccc(C(=O)c2c(N)c(C(=O)Nc3cccc(OC)c3)c3ccccn23)cc1 -0.793%
COCCCNC(=O)c1c(NC(=O)Cc2coc3cc(C)ccc23)sc2c1CCCC2 -6.91%
COc1ccc(C(=O)/C=C/c2cn(CC(O)CN3CCCCCC3)c3ccccc23)cc1OC (stereo not given) -15.4%
Cc1ccc(-c2noc(-c3ccc(N4CCOCC4)c([N+](=O)[O-])c3)n2)cc1 0%
Cc1ccc(C(=O)c2oc3ccccc3c2NC(=O)COc2ccccc2C)cc1 0.847%
Cc1ccccc1CN1C(=O)c2ccccc2S(=O)c2ccc(C(=O)N3CCOCC3)cc21 (stereo not given) 1.86%
O=[N+]([O-])c1cc(-c2nc(-c3ccccc3)no2)ccc1NCc1ccco1 1.83%
Cn1c(=O)c2cc(C(=O)NCCCN3CCN(c4ccc(F)cc4)CC3)sc2c2ccccc21 0.286%
COc1ccc(CCNC(=O)CCCn2c(=O)c3ccccc3n(CC(=O)Nc3ccccc3C)c2=O)cc1OC -9.49%
Cc1ccc(C2CC(=O)N(Cc3ccc(F)cc3)c3c2c(C)nn3-c2nc(C)cc(C)n2)cc1 (stereo not given) -17.5%
Cc1ccccc1CNC(=O)CN1C(=O)CCCc2ccccc21 -5.6%
Cc1ccc2scc(N3CCCCC3C)c(=O)c2c1 (stereo not given) 2.23%
COc1ccc(Cn2c(SCC(=O)N3CCN(c4ccc(F)cc4)CC3)nc3ccccc32)cc1 2.41%
O=C(CN1CCN(Cc2ccc(F)cc2)C1=O)NCc1ccc(F)cc1 -11.8%
Cc1ccc(NC2(c3ccccc3)C(=O)c3ccccc3C2=O)cc1F -16.3%
O=C(COc1ccccc1)N(Cc1cccnc1)c1nc2c(F)cc(F)cc2s1 -7.45%
Cc1sc(C2C(C#N)=C(N)N(c3ccc(Cl)cc3)C3=C2C(=O)CCC3)cc1CN1CCOCC1 (stereo not given) 7.38%
CC1CCN(S(=O)(=O)c2ccc3c(c2)N(CC(=O)NCCCOC(C)C)C(=O)CO3)CC1 -11.6%
CCc1ccccc1NC(=O)CN(c1ccccc1OC)S(=O)(=O)c1ccc(C)cc1 -2.51%
COCCNC(=O)Cn1c(-c2cccs2)cc2cc(Cl)ccc21 -11.5%
COc1ccc(C2C(=O)N(C3CCCCCC3)CC(=O)N2CCc2ccc(Cl)cc2)cc1OC (stereo not given) 12.7%
COCCNC(=O)CN1C(=O)COc2ccc(S(=O)(=O)N3CCCCCC3)cc21 6.57%
CCC(C(=O)NC1CCCCC1)n1c(SCc2ccccc2F)nc2ccncc21 (stereo not given) -2.81%
CCc1ccc(NC(=O)CSc2ccc(-c3sc(-c4ccccc4)nc3C)nn2)cc1 -1.22%
Cc1ccccc1C(=O)Nc1cccc(NC(=O)c2ccc(C(C)(C)C)cc2)c1 8.48%
CCN(Cc1ccccc1)c1nc2c(S(=O)(=O)c3ccccc3)nnn2c2ccc(Cl)cc12 -1.49%
Cc1nn(C(C)C(=O)NCCc2ccccc2)c(=O)c2c1sc1ccccc12 (stereo not given) 0.994%
CCOc1ccc(C2C(=O)N(C3CCCCC3)CC(=O)N2Cc2ccc(F)cc2)cc1OC (stereo not given) 7.91%
Cc1cccc(CNC(=O)c2ccc3c(c2)N(C)CCS3)c1 -2.96%
CCc1ccc(C(c2ccccc2)c2c(C)[nH]c3ccccc23)s1 (stereo not given) -0.243%
Cc1cc(C)c(NC(=O)CSc2nc3ccccc3c3nc(-c4ccccc4)nn23)c(C)c1 -4.14%
COc1ccc(NC(=O)Cn2c(=O)n(CCCC(=O)NCc3ccccc3Cl)c(=O)c3ccccc32)c(OC)c1 -1.74%
Cc1ccccc1CNC(=O)Cn1nc(C)c2nn(-c3ccc(Cl)cc3)c(C)c2c1=O 2.7%
CCOC(=O)c1sc2ccccc2c1S(=O)(=O)Nc1cc(OC)ccc1OC 1.32%
Cc1ccc(C)c(N2CCN(S(=O)(=O)c3ccc4[nH]c5c(c4c3)CCCC5)CC2)c1 -10%
COc1ccc(CNCc2c(C(=O)O)c(C)n(Cc3ccccc3C)c2C)cc1OC 0.717%
COc1ccc(N2CCN(c3ncccc3-c3nc(-c4ccccc4C)no3)CC2)cc1 -1.97%
COc1ccc(CNS(=O)(=O)c2ccc(C(=O)N(C)C)s2)cc1 0%
N#Cc1nc(-c2ccc(COc3ccc(Cl)cc3)o2)oc1N1CCCCC1 1.41%
COc1ccccc1N1CCN(c2nc3c(S(=O)(=O)c4ccccc4)nnn3c3ccc(Cl)cc23)CC1 -2.9%
CCOC(=O)c1scc(-c2ccccc2)c1S(=O)(=O)Nc1ccccc1OC 1.34%
O=C1c2[nH]nc(-c3ccccc3O)c2C(c2cccc(OCc3ccccc3)c2)N1CCCO (stereo not given) -1.21%
Fc1ccc(N2CCN(Cc3nnc(-c4ccccc4Cl)o3)CC2)cc1 6.19%
CCc1cccc(C)c1Nc1c(-c2ccc(F)cc2)nc2sccn12 -0.0981%
COc1ccc(Cn2c(SCc3ccc(C(=O)NC4CCCCC4)cc3)nc3ccncc32)cc1 -1.1%
CCOc1ccc(NC(=O)CSc2ncc(S(=O)(=O)c3ccc(F)c(C)c3)c(=O)[nH]2)cc1 -0.605%
Cc1ccc2c(=O)c(C(=O)c3ccccc3)cn(CC(=O)NCc3ccccc3)c2n1 -9.31%
Cc1ccc(CNc2nc(-c3ccco3)nn2C(=O)c2ccccc2[N+](=O)[O-])cc1 -6.54%
COc1ccc(N2CC(C(=O)NCCS(=O)(=O)N3CCN(c4ccccc4)CC3)CC2=O)cc1 (stereo not given) -4.86%
COc1ccc(S(=O)(=O)N2CCC(Oc3cccc(C(F)(F)F)c3)CC2)cc1OC 3.51%
CC(C)OCCCNC(=O)c1cn(C)c2ccc(S(=O)(=O)N(C)C3CCCCC3)cc2c1=O -10.4%
Cc1c(C(=O)N2CCCC2)oc2c1-c1nn(CC(=O)NCc3ccc(OC(C)C)cc3)cc1CC2 -10.1%
CCc1cccc(NC(=O)c2cnc(N3CCOCC3)c3ccccc23)c1 -16.5%
CN(CC(=O)Nc1ccc(OC(F)(F)F)cc1)S(=O)(=O)c1ccc2c(c1)CCC(=O)N2 0.0545%
Cc1ccc2occ(-c3cc(-c4ccccc4)nc4c3COc3ccccc3-4)c(=O)c2c1 2.61%
